Experimental data as given in the supplement of paper PMC12632987.
Whole data set: some 4,500 sequences, median “median log2 fold change of GCK-ALFA target abundance (FLAG IP / Myc IP barcode read proportion)” near 0.078, cut for the lowest 2% near -0.6. This is one part of the list.

B1: GBRAP_80_6794 (protein)
chain: AEARLAAALAEVEALDPELAERVREIVEEAREMGVATEDLADFVAAIAKLLKLDREKARELVEELEEELEELKEEGDAEGAAATVRVYAGEALLEVEELE
B2: GBRAP_125_3083 (protein)
chain: DVEEALEYAGLILKAAGFSDEDVEEFKKASKDSTVSAIFSAVVLAITDEETELKALQLTEEQQLQVLKELAEYIEAHPDVTPEEVKEKLKELIDKALAEQ
B3: GBRAP_184_5318 (protein)
chain: EVVEVVLEVNSVEELRAGMAAVMAEVRASGKRVLLVVELRNATEEKIDELAALIKEAKAAGLPIEVIVETLDPLDEELVDHAVEKMDAAGARLVIAISDE
B4: GBRAP_160_4094 (protein)
chain: MEEIEKLIEEIDELRERAKKEIEGENIEQRAVILRGFGGDVLMLLFESGIAPDEVEDFADEEFDDLVATVEANPELTLEEIKALLDEVVEKVKEKIKELG
B5: GBRAP_184_5285 (protein)
chain: TVRDVEIVAETAEEAIAQVRAAAERARAEGAKLRLTLLLRDSDVEGVVALFKLLKELRDEGVIEDAVVGLEREVTEEELDTLLKAADEAGVKLVAAISDE
B6: GBRAP_184_5248 (protein)
chain: AVASLELTVRSAADIPAAVAAFAAHAAAHHGAVHVLLDAEGLSTAERVALVDALGAAAAAAGVTALTIDLTREVSEEEADALIAAADARGVRLVLALKDE
B7: GBRAP_52_5980 (protein)
chain: AEAEARALAEELLALMLAGDREGARALIREIVATKSEAFLELVFAALAELARTATPEERDAIVELALLLEDEALEGGFDEAVVDAGVARVAAAAVAAAAA
B8: GBRAP_184_5041 (protein)
chain: KIFEAEIEFNNLEELKEKLAELKEEVKNHKGTLIVHVKAPEFTKEMVETLMAALKEILDKGYAEKVTVGLDGKMSEEVVDLAVELADEAGINLVLALDEE
B9: GBRAP_125_3000 (protein)
chain: PSEAELAAVATLAAALGYSPADVEELVALARAHGVKQTMIAIALAEGAEELAEALEQLSEAEVAALLARVAAHIAAHPDLTPEELLELILALAREALAAR
B10: GBRAP_160_4406 (protein)
chain: SESFEKLKEEVKEIFDEAEELIKGQSPEERLVIARVSLGEILLEAFENEEITDEQEDELAKILDEGLKKIEKAVKEGEEAVLKAIRETRDKVLAFIDSLK
B11: GBRAP_78_6590 (protein)
chain: EIEKAIDELLEATNKAMTLLAKNPTEFAQDILGKLIDESTAIYEAREEYNDKELIKKEAKALKETLEEALAHADKFTPETVAALKEALEKAEKLIKLLEK
B12: GBRAP_160_4300 (protein)
chain: MEELEKLKKEIEEIADEAIEMIEGESPEQRRTIVRVAMGEVILLAMENPKVTDEAEDKIAAIADATEATIDANPDLSEEEVKELIEKARDEVIKIIKELE
B13: GBRAP_128_3366 (protein)
chain: LDEALLAEIRALVERMITSSVEETAALTREIVARIGTLSLAEQEAAVEIILAALPKLTKEKLEVVADTIRAAAPELDPETQRLLAEVEVEALNLAEELEE
B14: GBRAP_14_3796 (protein)
chain: MEEREKEINEIGEETIEIVKEIMKDAPEEVKEKVIELIEEARDKIIKEKLNSDEAAELGDETVKKVEEILKDAPPEVKAQVIATVAVMFGEIVLEIEELE
B15: GBRAP_16_4994 (protein)
chain: EELKNKIEGILEFVKDVADAFEDIDPEAAKLAKEAAEKLERAAKLLEEGGEKEEVKKELEEALKIVKELAKRYEDKDKEAAAIAKLIAKRIKEAIKLAEE
B16: GBRAP_160_4226 (protein)
chain: METVEKIVKVFRDTFLEALELIEGESAEERAVILDVAVGEVILEVSEIEEATDEMEEVVDKKAEALAAALLAAADASAAERRALVDKAAAELRKELEKIE
B17: GBRAP_11_2921 (protein)
chain: KKEKLKEIAELAEEAAKLVDRLIAEGVDNEELLAELEKKIEELKELVEKYGDEADKKDVEIIEELWKEALADPENREEYLKQLRAALRVLAGQYLLKLEE
B18: GBRAP_160_4725 (protein)
chain: EEEIKEFVEEFREEFLETLELTKDESKENAKALFRGTAGEILQDAFENPFLTDEQEDVVAEILDELVEELEKNFDASLEEKKEIVEEKMEELLEKLLELS
B19: GBRAP_160_4350 (protein)
chain: MEAVEKLIEEIRRATEEVIEELDEVSVEEAAVLAAGEFGAVAMEAALDERYSDEMVDAIIEGRDEAVRALRELRDASVEERKRRLREITERTIEELKRIA
B20: GBRAP_78_6671 (protein)
chain: EIEELIDNALEHLSKAARIVRKLPADKQLEILGLLVDAASDLLEAEEEGFDLEKLKEALKHLEKALKLLEKLDTEEAKKAAEEVKKAIEDVKKAIELLEK
B21: GBRAP_11_2711 (protein)
chain: KKEKLKELAKKAEELAEEIKKLIKEGPTKEEIEKLLKKAEELLKEAKKAGLPQSVLDLIEIAAEELKEAIENPENVKEHLERALAAFRVLAGELLLLAEE
B22: GBRAP_26_5460 (protein)
chain: MEEAERAAEAEVRAIAARLPDPRVAAAVVAEFSTELLEAEEAIENGEDPKEAFRKAREEFLAEARELMEEAGLSPEEIAAFEAELSAVFDKLEAEVLAEL
B23: GBRAP_160_4147 (protein)
chain: SAELKALIEEIREITEEAIKLMEGETPEEAKVIARVALGEIVMLVFSNEAVSEETEEEVGEVADEAEAHLRANPDLTVEEIKAILREAGEEVIEIIEKEV
B24: GBRAP_43_5779 (protein)
chain: SEELVEGAFEAALLAAETPEIDDETKVKIIKLAFELAADEGIFNEEKLEEIIEAAAKSLSAESLKEIKEHLLKIAKEHPELKEKLEKAAKKVEEAIKKKE
B25: GBRAP_53_6414 (protein)
chain: MEAEIAKLKAEALAKAEKAAAADEATLAKLVEEIGALLAALKAAGAPEEELTALAREIARKLKEAGAPDSALVALAQQLAALGLEDATAEVAEEAVEELE
B26: GBRAP_160_4031 (protein)
chain: KEKLEKLAKYSKEVFEEAKELIEGQSAEQVANLFDVAMGQIIMEAVELGIDNEELEDFIDKLGDEGVATILANPDLSLEERKALIEEAEKKVLEKIEEAK
B27: GBRAP_80_6847 (protein)
chain: DAARLAAARARLAALLPEVAADVDRLVALAQELGVPDADIADLLAALAELAELDPERAAALIRELLADMEELKAEGDAANARAVVQGYAGEALMLAEELE
B28: GBRAP_52_6247 (protein)
chain: MSARLRALARELLELVLAGDEEGARALAREIARTLNEEELEAFADEFARLAEEMPVEDLEKVWRAAEILEEVLEEEGKSEVLVDYLRARTAAAIVKRLQA
B29: GBRAP_160_4826 (protein)
chain: SSSLEKLIKLVDELAEEAKELIKGETHEQRAAIIAVEFGQFILELSSEEKASDELEDEVDEIADDLVETVLENEDLTYEEVTELIEEAREEIKEILKKHL

These binders were tested against GABARAP, O95166 (assay: median log2 fold change of GCK-ALFA target abundance (FLAG IP / Myc IP barcode read proportion) (log2 ratio); each designed protein is fused to an ALFA-tag nanobody in HEK293 cells to bring the named protein to FLAG-tagged glucokinase (GCK); Myc marks an untargeted standard; higher = target protein stabilised (more abundant)). Details: target protein: 3xFLAG-MCP-GCK-ALFA reporter; HEK293 landing pad (RPLP).
How it was run: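 Sequencing of reverse-transcribed, amplified circular RNA barcodes from anti-FLAG and anti-Myc immunoprecipitates provided the readout for an ALFA-nanobody-fused binder library recombined into HEK293 landing-pad cells. Those cells were induced with 2 μg mL^−1 doxycycline, transfected with a plasmid expressing a FLAG-tagged target and a Myc-tagged standard, and lysed after 48 h. Target abundance is the per-binder median log2 ratio of FLAG to Myc barcode read proportions. Only barcodes at a proportion of ≥10^−7 in both replicates and binders with ≥3 barcodes per replicate were kept, with a 10^−6 pseudocount added before the two replicates were pooled.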

Sequence of GABARAP, O95166 (O95166 whole entry, the tested form may be a part): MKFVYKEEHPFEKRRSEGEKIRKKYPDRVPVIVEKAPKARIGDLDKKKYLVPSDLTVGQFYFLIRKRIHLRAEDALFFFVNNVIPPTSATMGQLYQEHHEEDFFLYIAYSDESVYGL

Binder	median log2 fold change
B1	-0.508
B2	0.133
B3	0.0313
B4	-0.0612
B5	-0.105
B6	0.128
B7	-0.762
B8	0.113
B9	-0.00702
B10	-0.138
B11	0.216
B12	-0.125
B13	0.309
B14	-0.186
B15	-0.107
B16	-0.651
B17	-0.0079
B18	0.0697
B19	0.0909
B20	-0.446
B21	0.0604
B22	0.197
B23	-0.617
B24	-0.0621
B25	0.386
B26	0.0473
B27	0.0197
B28	-0.122
B29	-0.33
